Source: publication PMC6919601, “Identification of Plasmodium dipeptidyl aminopeptidase allosteric inhibitors by high throughput screening” (PLoS ONE, 2019)
The campaign covered roughly 110,000 compounds. About 230 (0.21%) showed an effect of 50% or more. This is one part of the list.

biological target: DPAP1 (Plasmodium falciparum, UniProt Q8IIJ9); assay: primary screen, percent inhibition; read by cleavage of a fluorogenic dipeptide substrate; higher = more effect of the substance; set-up: species or system P. falciparum D10 trophozoite lysates; single well
Sequence (Q8IIJ9 whole entry, looked up): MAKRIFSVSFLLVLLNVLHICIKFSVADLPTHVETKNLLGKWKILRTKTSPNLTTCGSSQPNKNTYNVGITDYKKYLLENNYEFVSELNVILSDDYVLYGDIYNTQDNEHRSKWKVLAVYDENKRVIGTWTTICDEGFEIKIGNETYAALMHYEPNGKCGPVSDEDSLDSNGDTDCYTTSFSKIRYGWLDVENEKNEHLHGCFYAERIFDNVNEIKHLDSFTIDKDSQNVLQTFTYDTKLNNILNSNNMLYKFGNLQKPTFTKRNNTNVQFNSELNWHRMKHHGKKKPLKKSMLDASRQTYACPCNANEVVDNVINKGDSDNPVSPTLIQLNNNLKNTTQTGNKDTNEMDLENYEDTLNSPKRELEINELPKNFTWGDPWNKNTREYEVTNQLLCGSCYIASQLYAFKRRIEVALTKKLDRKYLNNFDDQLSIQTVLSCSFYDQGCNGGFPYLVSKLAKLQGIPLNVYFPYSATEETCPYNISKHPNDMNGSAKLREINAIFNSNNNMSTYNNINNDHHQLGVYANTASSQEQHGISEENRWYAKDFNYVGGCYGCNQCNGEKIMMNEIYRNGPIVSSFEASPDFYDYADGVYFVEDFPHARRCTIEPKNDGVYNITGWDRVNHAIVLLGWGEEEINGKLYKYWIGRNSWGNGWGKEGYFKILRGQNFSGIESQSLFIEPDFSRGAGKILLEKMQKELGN
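Further: 30 min substrate incubation versus DMSO and 10 µM JCP410 controls.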

| SMILES | % Inhibition @ 10 uM |
| --- | --- |
| O=c1c(C(c2ccccc2)c2c(O)sc3ccccc3c2=O)c(O)sc2ccccc12 | 18% |
| O=C(O)c1ccccc1Nc1cccc(Cl)c1 | 2.49% |
| O=C(C1=C(O)C(=O)N(CCc2ccccc2)C1c1ccc2c(c1)OCO2)c1ccccc1 (stereo not shown) | 0.528% |
| COc1ccc(C2C=C(c3ccc(Cl)cc3)Nc3nc(NC(=O)c4cccs4)nn32)cc1 (stereo not shown) | 1.62% |
| CCOC(=O)C1=CN(C)C=C(C(=O)OCC)C1c1ccccc1OCC | 3.45% |
| Cc1ccc(-c2nc(CSCC(=O)N3CCC4(CC3)OCCO4)c(C)o2)cc1 | 2.37% |
| CCOC(=O)N1CCC(NC(=O)CS(=O)Cc2nc(-c3ccc(C)cc3)oc2C)CC1 (stereo not shown) | -2.85% |
| O=C(CCCOc1ccc(Cl)cc1Cl)N1CCOCC1 | 4.47% |
| O=C(NCc1ccccc1)c1ccc(-c2ccccc2)s1 | -2.17% |
| CCOC(=O)CN(C)Cc1c[nH]c2ccccc12 | -5.42% |
| CCc1c(C)sc(NC(=O)Cn2nc(C)c(Br)c2C)c1C(N)=O | 0.907% |
| CO/C(O)=C1\C(C)=NC2=C(C(=O)c3ccccc32)C1c1ccc(Br)cc1 (stereo not shown) | -5.01% |
| Cc1cc(C)c2c3c(sc2n1)C(c1cccc(F)c1)C(C#N)=C(N)O3 (stereo not shown) | -2.07% |
| Cc1ccc(N2CC(C(=O)Nc3c(C)cccc3C)CC2=O)cc1Cl (stereo not shown) | 1.02% |
| O=c1c2ccccc2nc(/C=C/c2cccc(Br)c2)n1-c1ccccc1 | 3% |
| Cc1ccc2c(c1)-c1c(cnn1CC(=O)N(C)Cc1ccco1)CO2 | 0.695% |
| COc1cccc(=O)c2c(C)n(CC(=O)c3ccccc3)c(C)c12 | -0.958% |
| CCOC(=O)c1cnn(-c2ccccc2)c1NC(=O)c1ccccc1 | 9.09% |
| Cc1ccc(C23CC4CC(CC(O)(C4)C2)C3)cc1[N+](=O)[O-] | -2.55% |
| CC(C)c1ccc(/C=C2/C(=N)N3C(=NC2=O)SN=C3S(C)(=O)=O)cc1 | 1.85% |
| c1ccc(CCN2CCC(N3CCSCC3)CC2)cc1 | 1.57% |
| CCc1ccc(/C=C(\C#N)c2nc3ccccc3[nH]2)cc1 | -3.78% |

| SMILES | % Inhibition @ 10 uM |
| --- | --- |
| CCOc1ccc(-c2cc(C)n3nc(C(=O)Nc4ccc(C(C)=O)cc4)cc3n2)cc1 | 2.01% |
| Cc1nnc(NC(=O)CSc2nnc(CNC(=O)COc3ccccc3)n2-c2ccccc2)s1 | 5.32% |
| COc1ccc(-c2c(C(F)(F)F)oc3c(CN4CCCC4)c(O)ccc3c2=O)cc1OC | -1.98% |
| CCCN1CC(C)C(O)(c2ccccc2)CC1C (stereo not shown) | 5.04% |
| Clc1ccc(N2CCN(Cc3ccccc3Br)CC2)cc1 | 4.73% |
| CC(C)CCNC(=O)c1cc(-c2ccccn2)nc2ccc(S(=O)(=O)N3CCC(C)CC3)cc12 | -2.72% |
| Cc1ccc(CN(C(=O)COc2ccc(Cl)cc2)C2CCS(=O)(=O)C2)o1 (stereo not shown) | -1.11% |
| COC(=O)c1sc2nc(-c3ccccc3)ccc2c1N | -4.94% |
| O=[N+]([O-])c1ccc(Cl)cc1Sc1nc2ccccc2[nH]1 | -0.273% |
| Nc1ccc(C2CCCc3nonc32)c2nonc12 (stereo not shown) | -5.68% |
| COc1ccc(OCCSc2nc(N)cc(O)n2)cc1 | 0.00477% |
| COc1ccccc1N1CCN(C(=O)CN(c2ccccc2Cl)S(C)(=O)=O)CC1 | 4.83% |
| NS(=O)(=O)c1ccc(CCNC(=O)C2CCN(S(=O)(=O)c3c[nH]cn3)CC2)cc1 | 2.9% |
| CN(C)CCN1C(=O)C(O)=C(C(=O)c2ccccc2)C1c1ccc(Br)cc1 (stereo not shown) | -14.5% |
| CC(NC(=O)CCCCn1c(=O)[nH]c2ccsc2c1=O)c1ccccc1 (stereo not shown) | -3.27% |
| O=C1CC(N2CCCC(CO)C2)C(=O)N1c1ccc(Br)cc1 (stereo not shown) | 0.993% |
| C=CCOc1ccc2c(C(F)(F)F)cc(=O)oc2c1C | -0.45% |
| O=C(NCc1ccco1)c1ccc(CS(=O)c2ccc(Br)cc2)o1 (stereo not shown) | -3.32% |
| CC1CCN(C(=O)NCc2noc3ccccc23)CC1 | 1.13% |
| COc1ccc(OCC(O)Cn2c(NC3CCCCC3)nc3c2c(=O)n(C)c(=O)n3C)cc1 (stereo not shown) | -7.23% |
| COc1ccc2[nH]c(C)c(CCNCc3cccnc3)c2c1 | -4.35% |
| Cc1ccc(OC(C)C(=O)Nc2cccnc2)cc1 (stereo not shown) | 4.11% |

| SMILES | % Inhibition @ 10 uM |
| --- | --- |
| O=C(COc1ccc(S(=O)(=O)N2CCCC2)cc1)N1CCN(c2cccc(Cl)c2)CC1 | -3.41% |
| O=C1c2ccc(F)cc2C(=O)N1Cc1cccnc1 | 2.7% |
| O=C(CCc1ccc(S(=O)(=O)NCc2ccccc2)cc1)Nc1ccccc1 | -3.45% |
| O=[N+]([O-])c1ccc(CN2CCN(c3ccc(F)cc3)CC2)cc1 | -1.86% |
| CNc1nc(OCC(F)(F)F)nc(OCC(F)(F)F)n1 | -2.51% |
| COc1cc(OC)c(C2C3=C(O)CC(C)(C)CC3=NC(C)=C2C(=O)N2CCOCC2)cc1OC (stereo not shown) | 0.851% |
| O=C(Nc1ccc(S(=O)(=O)N2CCOCC2)cc1)c1ccc(Cl)cc1 | 0.528% |
| O=C(CN1C(=O)S/C(=C\c2c(F)cccc2Cl)C1=O)Nc1ccccc1 | 4.18% |
| Cc1cccc(-c2noc(CCC(=O)NC(C)(C)C)n2)c1 | -0.45% |
| CCOC(=O)c1nnn(-c2ccccc2OC)c1C(=O)OCC | -1.58% |
| COCc1nc(O)c2c(n1)-c1ccccc1CC21CCCCC1 | -0.294% |
| CC12CC(NC(=O)N1Cc1ccccc1)c1cc(Br)ccc1O2 (stereo not shown) | 2.17% |
| CC1(C)CC(NC2CC(C)(C)NC(C)(C)C2)CC(C)(C)N1 | 5.28% |
| O=C(Nc1ccccc1)Nc1cc2ccccc2cc1NC(=O)Nc1ccccc1 | -0.687% |
| Cc1ccc2cc(CCC#N)c(Cl)nc2c1 | 0.895% |
| c1cncc(-c2nn[nH]n2)c1 | -1.14% |
| CC(C)C[C@H](NC(=O)c1ccccc1CSc1ccccc1)C(=O)NCC#N | -1.41% |
| COC(=O)c1ccc(/C=c2\sc3ncnn3c2=O)cc1 | 3.54% |
| CN(C)CCCN1C(=O)C(O)=C(C(=O)c2ccccc2)C1c1ccccn1 (stereo not shown) | 3.79% |
| Cc1cccc(-c2noc(CNC(=O)C(C)Oc3ccc(Br)cc3)n2)c1 (stereo not shown) | 1.94% |
